Assay results published in the supplement of paper PMC8728848.
Some of the results follow.

Experiments:
Test in all cases: glycan array binding signal (z-score within array); higher = stronger binding
Details in all cases: glycan notation: IUPAC condensed, linker removed
Gal6S(b1-4)Glc6S = target: Gal6S(b1-4)Glc6S
Method in brief: (§1)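 From the Consortium for Functional Glycomics database, 3228 arrays were curated, keeping only those whose protein sequence was available. Binding is given as a within-array Z-score averaged across arrays sharing a protein sequence and across linkers. Negative Z-scores can be read as non-binding.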

Gal6S(b1-4)GlcNAc = target: Gal6S(b1-4)GlcNAc
Method in brief: as §1

Gal6S(b1-4)GlcNAc6S = target: Gal6S(b1-4)GlcNAc6S
Method in brief: as §1

GalNAc(a1-3)Gal = target: GalNAc(a1-3)Gal
Method in brief: as §1

GalNAc(a1-3)GalNAc = target: GalNAc(a1-3)GalNAc
Method in brief: as §1

[1] = target: GalNAc(a1-3)GalNAc(b1-3)Gal(a1-4)Gal(b1-4)Glc
Method in brief: as §1

[2] = target: GalNAc(a1-3)GalNAc(b1-3)Gal(a1-4)Gal(b1-4)GlcNAc
Method in brief: as §1

GalNAc(b1-3)Gal = target: GalNAc(b1-3)Gal
Method in brief: as §1

[3] = target: GalNAc(b1-3)Gal(a1-4)Gal(b1-4)GlcNAc
Method in brief: as §1

[4] = target: GalNAc(b1-3)Gal(a1-4)Gal(b1-4)GlcNAc(b1-3)Gal(b1-4)Glc
Method in brief: as §1

[5] = target: GalNAc(b1-3)Gal(a1-6)Gal(b1-4)Glc
Method in brief: as §1

GalNAc(b1-3)GalNAc = target: GalNAc(b1-3)GalNAc
Method in brief: as §1

GalNAc(b1-3)GlcNAc = target: GalNAc(b1-3)GlcNAc
Method in brief: as §1

GalNAc(b1-4)Gal(b1-4)Glc = target: GalNAc(b1-4)Gal(b1-4)Glc
Method in brief: as §1

GalNAc(b1-4)GlcNAc = target: GalNAc(b1-4)GlcNAc
Method in brief: as §1

[6] = target: GalNAc(b1-4)GlcNAc(b1-2)Man
Method in brief: as §1

[7] = target: GalNAc(b1-4)GlcNAc(b1-2)Man(a1-3)[GalNAc(b1-4)GlcNAc(b1-2)Man(a1-6)]Man(b1-4)GlcNAc(b1-4)GlcNAc
Method in brief: as §1

[8] = target: GalNAc(b1-4)GlcNAc(b1-3)GalNAc(b1-4)GlcNAc
Method in brief: as §1

GalNAc(b1-4)GlcNAc6S = target: GalNAc(b1-4)GlcNAc6S
Method in brief: as §1

GalNAc(b1-6)GalNAc = target: GalNAc(b1-6)GalNAc
Method in brief: as §1

GalNAc3S(b1-4)GlcNAc = target: GalNAc3S(b1-4)GlcNAc
Method in brief: as §1

GalNAc3S(b1-4)GlcNAc3S = target: GalNAc3S(b1-4)GlcNAc3S
Method in brief: as §1

[9] = target: GalNAc3S(b1-4)[Fuc(a1-3)]GlcNAc
Method in brief: as §1

GalNAc4S6S(b1-4)GlcNAc = target: GalNAc4S6S(b1-4)GlcNAc
Method in brief: as §1

GalNAc6S(b1-4)GlcNAc = target: GalNAc6S(b1-4)GlcNAc
Method in brief: as §1

Glc(a1-4)Glc = target: Glc(a1-4)Glc
Method in brief: as §1

[10] = target: Glc(a1-4)Glc(a1-4)Glc(a1-4)Glc
Method in brief: as §1

Glc(a1-6)Glc(a1-6)Glc = target: Glc(a1-6)Glc(a1-6)Glc
Method in brief: as §1

[11] = target: Glc(a1-6)Glc(a1-6)Glc(a1-6)Glc
Method in brief: as §1

Glc(b1-4)Glc = target: Glc(b1-4)Glc
Method in brief: as §1

Glc(b1-6)Glc = target: Glc(b1-6)Glc
Method in brief: as §1

GlcA(b1-3)Gal = target: GlcA(b1-3)Gal
Method in brief: as §1

GlcA(b1-3)GlcNAc = target: GlcA(b1-3)GlcNAc
Method in brief: as §1

GlcA(b1-6)Gal = target: GlcA(b1-6)Gal
Method in brief: as §1

[12] = target: GlcA3S(b1-3)Gal(b1-4)GlcNAc(b1-2)Man
Method in brief: as §1

[13] = target: GlcA3S(b1-3)Gal(b1-4)GlcNAc(b1-3)Gal(b1-4)Glc
Method in brief: as §1

[14] = target: GlcNAc(a1-3)Gal(b1-4)GlcNAc
Method in brief: as §1

[15] = target: GlcNAc(a1-4)Gal(b1-3)GlcNAc
Method in brief: as §1

[16] = target: GlcNAc(a1-4)Gal(b1-4)GalNAc
Method in brief: as §1

[17] = target: GlcNAc(a1-4)Gal(b1-4)GlcNAc
Method in brief: as §1

[18] = target: GlcNAc(a1-4)Gal(b1-4)GlcNAc(b1-3)Gal(b1-4)Glc
Method in brief: as §1

[19] = target: GlcNAc(a1-4)Gal(b1-4)GlcNAc(b1-3)Gal(b1-4)GlcNAc
Method in brief: as §1

[20] = target: GlcNAc(a1-4)Gal(b1-4)GlcNAc(b1-3)Gal(b1-4)GlcNAc(b1-3)Gal(b1-4)GlcNAc
Method in brief: as §1

[21] = target: GlcNAc(a1-4)Gal(b1-4)GlcNAc(b1-3)Gal(b1-4)[Fuc(a1-3)]GlcNAc(b1-3)Gal(b1-4)[Fuc(a1-3)]GlcNAc
Method in brief: as §1

[22] = target: GlcNAc(a1-6)Gal(b1-4)GlcNAc
Method in brief: as §1

B1: rCnSL-A (Clitocybe nebularis) (protein)
chain: VNPNLPGPNDVFVGFRGTNNIVGAIYEKDGIKDTPLNNGADAEMGPGSYITDGLFTARIFASGSAGNNPGTTATVCKIYASGVQWRGAPKGYIPVAYFGNGPTAEQRRQTYLRTLGLPGTAIRFGNLNTNPGQGPTAPRQMVVPPGPLRSLLKASCFPAADTRLPQTLHYFEKRVDWNIITAADSQTWGH
glycan array binding signal (z-score) (Gal6S(b1-4)Glc6S): -0.241
glycan array binding signal (z-score) (Gal6S(b1-4)GlcNAc): -0.238
glycan array binding signal (z-score) (Gal6S(b1-4)GlcNAc6S): -0.295
glycan array binding signal (z-score) (GalNAc(a1-3)Gal): -0.24
glycan array binding signal (z-score) (GalNAc(a1-3)GalNAc): -0.195
glycan array binding signal (z-score) [1]: -0.248
glycan array binding signal (z-score) [2]: -0.228
glycan array binding signal (z-score) (GalNAc(b1-3)Gal): -0.172
glycan array binding signal (z-score) [3]: -0.103
glycan array binding signal (z-score) [4]: -0.126
glycan array binding signal (z-score) [5]: -0.204
glycan array binding signal (z-score) (GalNAc(b1-3)GalNAc): -0.302
glycan array binding signal (z-score) (GalNAc(b1-3)GlcNAc): -0.206
glycan array binding signal (z-score) (GalNAc(b1-4)Gal(b1-4)Glc): -0.026
glycan array binding signal (z-score) (GalNAc(b1-4)GlcNAc): -0.033
glycan array binding signal (z-score) [6]: 0.402
glycan array binding signal (z-score) [7]: 0.978
glycan array binding signal (z-score) [8]: 0.535
glycan array binding signal (z-score) (GalNAc(b1-4)GlcNAc6S): -0.266
glycan array binding signal (z-score) (GalNAc(b1-6)GalNAc): -0.234
glycan array binding signal (z-score) (GalNAc3S(b1-4)GlcNAc): -0.247
glycan array binding signal (z-score) (GalNAc3S(b1-4)GlcNAc3S): -0.312
glycan array binding signal (z-score) [9]: -0.302
glycan array binding signal (z-score) (GalNAc4S6S(b1-4)GlcNAc): -0.268
glycan array binding signal (z-score) (GalNAc6S(b1-4)GlcNAc): -0.236
glycan array binding signal (z-score) (Glc(a1-4)Glc): -0.223
glycan array binding signal (z-score) [10]: -0.147
glycan array binding signal (z-score) (Glc(a1-6)Glc(a1-6)Glc): -0.18
glycan array binding signal (z-score) [11]: -0.208
glycan array binding signal (z-score) (Glc(b1-4)Glc): -0.221
glycan array binding signal (z-score) (Glc(b1-6)Glc): -0.293
glycan array binding signal (z-score) (GlcA(b1-3)Gal): -0.323
glycan array binding signal (z-score) (GlcA(b1-3)GlcNAc): -0.176
glycan array binding signal (z-score) (GlcA(b1-6)Gal): 2.28
glycan array binding signal (z-score) [12]: -0.316
glycan array binding signal (z-score) [13]: -0.285
glycan array binding signal (z-score) [14]: -0.253
glycan array binding signal (z-score) [15]: -0.198
glycan array binding signal (z-score) [16]: -0.222
glycan array binding signal (z-score) [17]: -0.273
glycan array binding signal (z-score) [18]: -0.367
glycan array binding signal (z-score) [19]: -0.272
glycan array binding signal (z-score) [20]: -0.231
glycan array binding signal (z-score) [21]: 0.003
glycan array binding signal (z-score) [22]: 0.406
